Data: PubChem BioAssay AID1346428 (National Center for Advancing Translational Sciences (NCATS), 2018)
About 1,200 (2.5%) of roughly 48,000 compounds were called active. Another 2% or so got no clear call; they are omitted.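 How the source made its calls: active means activation of at least 60% and not above a set upper limit (about 1 call in 100 departs from these limits); inconclusive means activation of 40% to 60%, or above that upper limit; inactive means activation under 40%.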 The list shows a part of the results.

These compounds were tested against Probable G-protein coupled receptor 32 (Homo sapiens) (UniProt O75388) (assay: qHTS for Agonists of Human Resolvin D1 Receptor DRV1). Conditions: CHO-K1 GPR32 beta-arrestin PathHunter luminescence, 90 min; at 76.9 µM; active compounds read high; zero percent set by DMSO-only wells.
Sequence of UniProt O75388 (O75388 whole entry, looked up, the tested form may be a part): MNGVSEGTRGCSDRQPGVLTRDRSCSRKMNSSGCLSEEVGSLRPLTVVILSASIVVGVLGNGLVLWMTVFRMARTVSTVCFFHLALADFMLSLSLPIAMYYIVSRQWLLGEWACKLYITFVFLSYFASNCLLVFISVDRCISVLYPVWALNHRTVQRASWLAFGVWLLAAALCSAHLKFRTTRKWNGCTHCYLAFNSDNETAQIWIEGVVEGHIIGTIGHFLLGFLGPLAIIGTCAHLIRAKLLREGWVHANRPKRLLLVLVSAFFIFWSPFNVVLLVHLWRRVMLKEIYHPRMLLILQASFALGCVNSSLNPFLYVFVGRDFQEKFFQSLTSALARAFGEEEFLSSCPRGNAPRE
Summary of the method: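 PathHunter enzyme-fragment complementation, CHO-K1 GPR32 stable line; 2,500 cells/well, overnight attach; cpd 90 min 37 °C 5% CO2; detection reagent 1 h RT; chemiluminescence. DMSO = EC0.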
Further: 0% is about no effect.

activation, inactive:
NC(=O)c1nc(Nc2ccccc2)sc1NC(=O)c1ccccc1Br 30.5%
CCOC(=O)c1cccc(NS(=O)(=O)c2ccc(-c3cnc(C4CC4)o3)cc2)c1 -4.23%
O=C(C1CCN(S(=O)(=O)Cc2ccccc2)CC1)N1CCN(c2ccccc2)CC1 -7.61%
Cc1ccc(S(=O)(=O)C(CNS(=O)(=O)c2ccc(F)c(C(F)(F)F)c2)c2ccco2)cc1 (centres undefined) -12.7%
CCC(C(=O)NC1CCCCC1)n1c(SCc2cccc(F)c2)nc2ccncc21 (centres undefined) -1.64%
COc1ccccc1NC(=O)Cn1ccn(-c2cc(C)cc(C)c2)c(=O)c1=O -18.6%
CCOc1ccc(CNCc2c(C(=O)O)n(Cc3ccccc3C)c3cc(OC)ccc23)cc1OC -5.85%
CC(CNC(=O)C1CCN(C(=O)c2cc3sccc3n2C)CC1)c1ccccc1 (centres undefined) 3.15%
Cc1ccc(Cl)cc1Nc1nn2c(=O)c3ccc(C(=O)NC(C)c4ccccc4)cc3nc2s1 (centres undefined) 0.577%
O=C(C1CCCCC1)N1CC(=O)N2CCCc3ccccc3C2C1 (centres undefined) -10.4%
CCOc1cccc(NC(=O)C2CC(=O)N(C)C(=Nc3ccc(OC)cc3)S2)c1 (centres undefined) 20.2%
Cn1nc(C(=O)NCc2ccccc2)c2c1-c1ccccc1S(=O)(=O)C2 -14.2%
COc1ccccc1CNC(=O)CCc1c(C)nn(-c2ccc(N3CCCCC3)nn2)c1C -10.4%
Cc1ccc(Cl)cc1N1CCN(C(=O)CCS(=O)(=O)c2ccc3c(c2)oc(=O)n3C)CC1 1.9%
Cc1cccc(CN2CCN(C(c3ccccc3)c3ccc(Cl)cc3)CC2)c1 (centres undefined) 2.97%
CCOc1ccc(-n2c(=O)c3c(C)c(C(=O)N(C)C)sc3n(Cc3cc(C)ccc3C)c2=O)cc1 -9.52%
Cc1ccc(S(=O)(=O)C(CNC(=O)C(=O)NCc2ccc(Cl)cc2)c2ccco2)cc1 (centres undefined) -8.1%
CCOc1ccccc1CNC(=O)c1oc2ccc3c(c2c1C)C(=O)CC(C)(C)O3 -17.4%
O=c1c2sc3ccccc3c2n(Cc2ccc(F)cc2Cl)c(=O)n1Cc1ccccc1 -1.3%
CN(C(=O)CSc1nc2ccccc2n1Cc1ccccc1C#N)c1ccccc1 -6.2%
Cc1ccc2onc(CNC(=O)N3CCN(c4cccc(C(F)(F)F)c4)CC3)c2c1 10.5%
CCN(CC)S(=O)(=O)c1ccc(N2CCCCS2(=O)=O)cc1 -4.52%
CCn1cc(S(=O)(=O)c2ccc(Cl)cc2)c(=O)c2cc(F)c(N3CCOCC3)cc21 -3.28%
Cc1ccc2oc(-c3ccc(C)c(NC(=O)c4ccc(-c5ccccc5[N+](=O)[O-])o4)c3)nc2c1 -3.7%
CCOc1ccc(S(=O)(=O)N(CC(=O)Nc2ccc3c(c2)OCO3)c2ccc(C)cc2)cc1 -6.62%
COC(=O)c1ccc2nc(C)cc(Nc3cccc(Cl)c3C)c2c1 -25%
CCCCCCCCCCCCCC[N+](C)(C)Cc1ccccc1 -1.51%
COCC(=O)Nc1c(C(=O)Nc2ccc(C)cc2)oc2ccccc12 -3.61%
Cc1ccc(NC(c2nnc(-c3ccccc3)o2)c2ccccc2F)c(Cl)c1 (centres undefined) -8.38%
COc1cc(CN(C(=O)c2ccc(Cl)cc2)C2CCS(=O)(=O)C2)cc(OC)c1OC (centres undefined) -14.9%
CCOC(=O)c1ccc(-c2ccc(/C=C(\C#N)C(=O)Nc3ccc(C)cc3)o2)cc1 6.1%
O=C(O)CCC(=O)Nc1ccc(S(=O)(=O)Nc2nccs2)cc1 -22.6%
COc1cc(NC(=O)C2Cc3ccccc3N2C(=O)c2ccccc2)cc(OC)c1 (centres undefined) -39.4%
Cc1ccc(-c2nc(CS(=O)CC(=O)NCCc3ccc(Cl)cc3)c(C)o2)cc1 (centres undefined) -9.65%
CC(CNC(=O)CCCn1c(=O)c2cccn2c2ccc(F)cc21)c1ccccc1 (centres undefined) -16.8%
Cc1cccc(C(=O)NNc2ncnc3c2cnn3-c2ccc(C)c(Cl)c2)c1 -5.01%
O=C1C2C=CC=CC2=NC(=S)N1CCN1CCC(=C(c2ccc(F)cc2)c2ccc(F)cc2)CC1 (centres undefined) -9.46%
CCOc1ccc(-n2nc(CO)c(C(=O)NCC(C)O)n2)cc1 (centres undefined) -2.7%
COc1ccc(OCCn2nnc3sc4c(c3c2=O)CCCC4)cc1 -5.86%
COC(=O)c1cc2sccc2n1CC(=O)Nc1cc(Cl)ccc1OC 25.7%
COc1ccc(N2CCN(c3ncnc4c3nnn4C)CC2)cc1 -9.39%
Cc1ccc(NC(=O)Cn2c(=O)n(CCCCC(=O)NCc3ccc4c(c3)OCO4)c(=O)c3ccccc32)cc1 -10%
CCC(=O)N1c2ccccc2CC1C(=O)N1CCN(c2ccccc2F)CC1 (centres undefined) -18.5%
CCOC(=O)c1c(C)[nH]c(C)c1S(=O)(=O)NCC(=O)NCc1ccccc1C 5.44%
COc1cnc(NS(=O)(=O)c2ccc(N)cc2)nc1 3.5%
CCOc1ccccc1CNS(=O)(=O)c1cc(-c2onc(C)c2C)ccc1OC -14.8%
CCOC(=O)C1CCN(c2ncnc3c2c(-c2ccccc2)cn3-c2ccc(Cl)cc2)CC1 -15.9%
N#Cc1c(C(F)(F)F)cc(-c2cccs2)nc1SCc1ccccc1F 13.2%
CCOc1ccccc1Oc1nc(C)nc2c1oc1ccccc12 -16.3%
Clc1ccccc1CSc1nc(NCCc2ccccc2)c2ccccc2n1 -20.2%
O=C(O)CCn1c2c(c3ccccc31)C[C@H](NS(=O)(=O)c1ccc(F)cc1)CC2 29.1%
O=C(CSc1ncc2c(n1)-c1ccccc1N(Cc1ccc(Cl)cc1)S2(=O)=O)c1ccccc1 0.289%
CCOc1ccccc1Nc1sc(C(=O)c2ccc(Cl)cc2)c(N)c1S(=O)(=O)c1ccccc1 -13.5%
CCOc1ccc(NC(=O)CCc2nnc3n(C)c(=O)c4sccc4n23)cc1 -2.95%
Cc1cccc(N2CCN(C(=O)c3ccc4c(c3)N(Cc3cccc(Cl)c3)C(=O)c3ccccc3S4(=O)=O)CC2)c1C -22.2%
CCN(Cc1ccccc1)C(=O)Cn1ncc2c(=O)oc3ccc(C)cc3c21 -9.11%
O=C(O)Cc1cn(-c2ccccc2)nc1-c1ccc(Cl)cc1 -2.71%
CCc1ccc(NC(=O)CSc2ncc(S(=O)(=O)c3cc(C)ccc3C)c(=O)[nH]2)cc1 5.53%
CC1CCN(c2nc3ccc(C(=O)NCCc4ccc(S(N)(=O)=O)cc4)cc3s2)CC1 -8.22%
COc1ccc(CC(=O)NC2CC(=O)N(c3ccc(C)c(C)c3)C2)cc1OC (centres undefined) -2.45%
COc1ccc(-c2nc(Cn3c(SCc4ccccc4F)nc4cccnc43)c(C)o2)cc1 -18.4%
Cc1ccc(CNC(=O)CN2C(=O)C3(SCC(=O)N3c3ccc(F)c(F)c3)c3ccccc32)cc1 (centres undefined) -11.1%
Cc1cccc2sc(N(Cc3cccnc3)C(=O)C3COc4ccccc4O3)nc12 (centres undefined) -17.7%
O=C(CN1C(=O)CCc2cc(S(=O)(=O)N3CCCCC3)ccc21)NCc1ccc(Cl)cc1 -17.9%
CCOC(=O)C(Cc1ccccc1)NC(=O)CCc1c(C)nc2c(c(C)nn2-c2ccc(C)c(C)c2)c1C (centres undefined) -3.74%
COC(=O)c1ccccc1NC(=O)C1CCCN(c2nnc(C)c3c(C)n(-c4ccccc4)nc23)C1 (centres undefined) 10.7%
COC(=O)c1c(NC(=O)c2ccc(S(=O)(=O)N(C)C3CCCCC3)cc2)sc2c1CCN(C)C2 5.03%
O=NN(CCCl)C(=O)NC1CCCCC1 -9.15%
Cc1ccc(C)c(N2CCN(C(=O)CS(=O)(=O)c3cccc4nsnc34)CC2)c1 13.5%
COc1ccc(OCC(=O)NCC(c2ccc(OC)cc2)N2CCOCC2)cc1 (centres undefined) -14.5%
Cc1cccc(N2CCN(C(=O)CN3C(=O)COc4ccc(S(=O)(=O)N5CCCC5)cc43)CC2C)c1 (centres undefined) -13.6%
Cc1cc(NC(=O)c2cnc3c(-c4ccccc4)c(C)nn3c2C)ccc1Br 9.8%
Cc1cc(NC(=O)C(C)(C)C)cc(-c2nc3ncccc3o2)c1O 10.9%
O=C(Cn1c(-c2cccs2)cc2cc(F)ccc21)NCCCN1CCN(c2ccc(F)cc2)CC1 -11.7%
Cc1ccc(/C=C/c2onc(C)c2S(=O)(=O)N2CCC(C(=O)NCc3ccc(OC(C)C)cc3)CC2)cc1 -27.2%
CCc1c(CN2CCN(c3ccccc3F)CC2)csc1C 17.4%
Cc1ccc(CNC(=O)c2ccccc2NC(=O)c2nsc3ccccc23)cc1 2.03%
COc1ccc(-c2c(C)c3ccc(O)c(CN4CCCC4)c3oc2=O)cc1 -9.7%
COc1cccc(CNCCSc2nnnn2-c2ccccc2)c1OC -2.58%
COc1cccc(C(=O)n2nc(-c3cccnc3)nc2NCc2ccc(F)cc2)c1 -22.9%
CCN(CC)CCSc1nnc2c3cc(F)ccc3n(CC)c2n1 3.07%
Cc1ccc(CCNC(=O)CCn2nc(-c3ccc(C)cc3)ccc2=O)cc1 -12.8%
COC(=O)c1ccc2c(=O)n(CCCCCC(=O)N3CCN(c4ccc(Cl)cc4)CC3)c(=O)[nH]c2c1 -17.2%
COC(=O)c1ccc(NC(=O)CN(Cc2ccccc2)S(=O)(=O)c2ccc(Cl)cc2)cc1 -0.742%
